These are yes or no findings as the source states them, for the method shown. For some of these results: Binding seen in cells or lysates may run through a third protein. Some results given as binding are weak or reduced against the parent protein; the word gives no strength. For some of these results: Where a sequence is shown, tags or fusion partners need not be part of it.
Assays:
[1] = molecular target: T1, Npa2p-FPZ (S. cerevisiae) (UniProt P47108); experiment: co-IP; tandem affinity purification of the FPZ-tagged bait from yeast extract (IgG sepharose, PreScission protease, anti-Flag beads, Flag peptide elution); buffers with 10 mM MgCl2 and 150 mM NaCl, 4°C; Coomassie staining, Western; also rrn3/RSA3-FPZ cells at 24°C or shifted to 37°C for 6 hours, and cells depleted of Npa1p or Npa2p where binding is kept
T1 sequence: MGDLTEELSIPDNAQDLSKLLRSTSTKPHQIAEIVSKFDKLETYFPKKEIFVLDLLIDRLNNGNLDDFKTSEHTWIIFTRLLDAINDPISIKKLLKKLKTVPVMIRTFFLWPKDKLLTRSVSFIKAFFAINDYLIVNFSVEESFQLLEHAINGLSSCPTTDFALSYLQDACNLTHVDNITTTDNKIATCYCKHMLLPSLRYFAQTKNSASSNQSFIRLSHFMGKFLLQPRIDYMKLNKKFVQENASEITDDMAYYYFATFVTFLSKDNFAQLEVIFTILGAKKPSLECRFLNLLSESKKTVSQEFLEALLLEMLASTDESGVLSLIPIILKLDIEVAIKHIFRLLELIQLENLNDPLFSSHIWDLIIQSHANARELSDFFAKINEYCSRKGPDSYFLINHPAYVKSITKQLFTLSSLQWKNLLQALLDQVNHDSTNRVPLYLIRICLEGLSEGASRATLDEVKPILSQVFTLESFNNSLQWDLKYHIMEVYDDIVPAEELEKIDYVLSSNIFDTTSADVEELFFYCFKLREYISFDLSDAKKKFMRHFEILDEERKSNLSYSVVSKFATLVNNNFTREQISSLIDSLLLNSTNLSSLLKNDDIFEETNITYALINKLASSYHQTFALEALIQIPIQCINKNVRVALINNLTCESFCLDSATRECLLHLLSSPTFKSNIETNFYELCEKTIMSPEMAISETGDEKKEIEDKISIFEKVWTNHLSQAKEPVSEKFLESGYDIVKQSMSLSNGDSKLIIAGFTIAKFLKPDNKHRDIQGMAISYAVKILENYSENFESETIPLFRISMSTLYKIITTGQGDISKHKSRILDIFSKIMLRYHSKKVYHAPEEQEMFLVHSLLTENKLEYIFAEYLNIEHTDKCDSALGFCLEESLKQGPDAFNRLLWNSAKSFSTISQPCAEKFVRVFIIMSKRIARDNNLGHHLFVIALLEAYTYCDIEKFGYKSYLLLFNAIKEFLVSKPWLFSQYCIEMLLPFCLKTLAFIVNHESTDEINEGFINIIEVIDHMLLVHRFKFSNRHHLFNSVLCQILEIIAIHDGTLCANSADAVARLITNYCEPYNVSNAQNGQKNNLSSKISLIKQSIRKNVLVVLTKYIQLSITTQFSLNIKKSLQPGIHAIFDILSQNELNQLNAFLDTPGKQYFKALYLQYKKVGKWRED

[2] = molecular target: T2, GST-Nop8p (S. cerevisiae) (UniProt Q08287); experiment: condition: 2 μg of purified His-Dbp6p in 200 μl IP buffer; pull-down; 2 μg GST-tagged protein on glutathione magnetic beads, 2 μg His-Dbp6p in 200 μl IP buffer (50 mM Tris-HCl pH 8, 150 mM potassium chloride, 5 mM magnesium chloride, 0.2% Nonidet P-40), 1 h at 16°C; Western with anti-His; also after RNase A treatment; both purified
T2 sequence: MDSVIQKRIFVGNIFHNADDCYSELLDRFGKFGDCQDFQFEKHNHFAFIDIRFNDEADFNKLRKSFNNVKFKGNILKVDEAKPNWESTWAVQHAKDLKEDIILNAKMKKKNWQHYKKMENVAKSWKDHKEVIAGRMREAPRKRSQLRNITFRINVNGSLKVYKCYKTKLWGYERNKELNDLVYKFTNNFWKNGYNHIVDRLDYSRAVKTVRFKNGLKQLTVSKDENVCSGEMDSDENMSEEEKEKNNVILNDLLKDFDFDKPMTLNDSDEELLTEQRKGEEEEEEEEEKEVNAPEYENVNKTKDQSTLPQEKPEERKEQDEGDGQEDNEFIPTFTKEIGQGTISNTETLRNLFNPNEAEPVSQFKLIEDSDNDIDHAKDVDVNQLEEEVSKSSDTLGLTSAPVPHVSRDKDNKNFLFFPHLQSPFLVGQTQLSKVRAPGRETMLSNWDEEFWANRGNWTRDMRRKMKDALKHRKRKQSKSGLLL

[3] = molecular target: T3, GST-Rsa3p (S. cerevisiae), Q05942; experiment: as above; conditions: remark: other sources report otherwise
T3 chain: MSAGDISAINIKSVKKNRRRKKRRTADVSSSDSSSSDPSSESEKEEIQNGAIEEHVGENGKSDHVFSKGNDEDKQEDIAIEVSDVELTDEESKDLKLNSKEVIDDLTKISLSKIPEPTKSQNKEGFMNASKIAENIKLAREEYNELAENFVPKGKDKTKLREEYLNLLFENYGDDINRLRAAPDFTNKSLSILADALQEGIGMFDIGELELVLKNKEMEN

GST-Npa2p = molecular target: T4, GST-Npa2p (S. cerevisiae, UniProt P47108 1-1174); experiment: co-IP; purified GST-tagged versions of the complex proteins tested in pairs by immunoprecipitation with specific antibodies; conditions not given; both purified
T4 construct: Npa2p, S. cerevisiae; NPA2 ORF inserted into XhoI-digested pGEX-6P1 (plasmid pRC58); source: E. coli Rosetta λDE3, purified (Glutathione Sepharose 4 FF)
T4 sequence (looked up): T1 sequence

B1: Dbp6p (protein, UniProt P53734 1-629)
chain: MFASRFDPSQLTAPAASAPEGIVGTTPPAIVPLKRQATESDNEEYGSHQDSDESSNSSSEEDEDRMQVDYGASEEDSSEVEEEESKPSTHSTVLSRFKQTVSLQERLGASDIAESKEDEGIEDEAASTHQLKQIPQPEFVKNPMNLNTNSLQFKSTGWLNTEKIYYDNSLIKPFSDYANELEAKLLQNICKNFSTNTFPIQSIILDSILPVLNFTLNVSKRNFTRRIGDILVNAATGSGKTLAYSIPIVQTLFKRQINRLRCIIIVPTKLLINQVYTTLTKLTQGTSLIVSIAKLENSLKDEHKKLSNLEPDILITTPGRLVDHLNMKSINLKNLKFLIIDEADRLLNQSFQGWCPKLMSHLKTDKLDTLPGNVIKMIFSATLTTNTEKLNGLNLYKPKLFLKQTDKLYQLPNKLNEFNINIPTAKSVYKPLILLYSICQFMAHSPIAAKILIFVKSNESSIRLSKLLQLICESRSQSSVLKNLQNLAVSINSVNSNNSKAENKKIVANFSHHSESAGITILITTDIMSRGIDINDITQVINYDPPMSSQQYVHRVGRTARANELGSAYNLLVGRGERTFFDDLNKDLDRDGKSVQPLELDFTLLESDSELYTSSLESLKNYHNNTAQA
B1 was tested, and the binding [1] was “binds”.

B2: His-Dbp6p (natural protein, S. cerevisiae, UniProt P53734 1-629, looked up)
chain: B1 chain
notes: Dbp6p, S. cerevisiae; DBP6 ORF cloned into a modified pET-15b (plasmid pET-DBP6); also called His-tagged Dbp6p; source: E. coli Rosetta λDE3, purified (HisTrap FF, Superdex 200)
With B2 the binding [2] was “no binding”.

B3: His-Dbp6p, P53734 1-629 (protein)
chain: B1 chain
In the case of B3, the binding [3] is reported as “no binding”.

B4: GST-Nop8p (protein, UniProt Q08287 1-484)
chain: T2 sequence
For B4, the binding (GST-Npa2p) was “no binding”.
